Changes are numbered by the printed parent chain; changes in the protein carry UniProt numbers. Some of the results follow.

The source of these data is PMC9911399, “Two distinct binding modes provide the RNA-binding protein RbFox with extraordinary sequence specificity”.

T1: RBFOX1 RRM RbFoxmut (Fox-RRM*) (Homo sapiens, UniProt Q9NWB1 109-208, R118D;E147R;N151S;E152T)
T1 sequence: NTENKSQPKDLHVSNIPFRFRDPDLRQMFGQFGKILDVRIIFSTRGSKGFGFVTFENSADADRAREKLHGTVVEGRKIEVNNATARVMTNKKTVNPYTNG

B1: UGUGACU (DNA:RNA)
RNA: GGGAGACCGGAAUUCAGAUUGUCCUGUGACUUUAAAUCCCGUCGUAGCCACCA
DNA 1: CAATCTGAATTCCGGTCTCCC
DNA 2: TGGTGGCTACGACGGGATT
B2: AUGGCUU (DNA:RNA)
RNA: B1 RNA with U25A, G26U, U27G, A29C, C30U
DNA 1: CAATCTGAATTCCGGTCTCCC
DNA 2: TGGTGGCTACGACGGGATT
B3: AUGUCUG (DNA:RNA)
RNA: GGGAGACCGGAAUUCAGAUUGUCCAUGUCUGUUAAAUCCCGUCGUAGCCACCA
DNA 1: CAATCTGAATTCCGGTCTCCC
DNA 2: TGGTGGCTACGACGGGATT
B4: GGCGCGA (DNA:RNA)
RNA: B1 RNA with U25G, U27C, A29C, C30G, U31A
DNA 1: CAATCTGAATTCCGGTCTCCC
DNA 2: TGGTGGCTACGACGGGATT
B5: AAGUCGA (DNA:RNA)
RNA: B3 RNA with U26A, U30G, G31A
DNA 1: CAATCTGAATTCCGGTCTCCC
DNA 2: TGGTGGCTACGACGGGATT
B6: UUGGUUU (DNA:RNA)
RNA: B3 RNA with A25U, U28G, C29U, G31U
DNA 1: CAATCTGAATTCCGGTCTCCC
DNA 2: TGGTGGCTACGACGGGATT
B7: GACCAGU (DNA:RNA)
RNA: B1 RNA with U25G, G26A, U27C, G28C, C30G
DNA 1: CAATCTGAATTCCGGTCTCCC
DNA 2: TGGTGGCTACGACGGGATT
B8: UAUAGAU (DNA:RNA)
RNA: B1 RNA with G26A, G28A, A29G, C30A
DNA 1: CAATCTGAATTCCGGTCTCCC
DNA 2: TGGTGGCTACGACGGGATT
B9: AUCGAUA (DNA:RNA)
RNA: B3 RNA with G27C, U28G, C29A, G31A
DNA 1: CAATCTGAATTCCGGTCTCCC
DNA 2: TGGTGGCTACGACGGGATT
B10: UCAACCU (DNA:RNA)
RNA: B1 RNA with G26C, U27A, G28A, A29C
DNA 1: CAATCTGAATTCCGGTCTCCC
DNA 2: TGGTGGCTACGACGGGATT
B11: CAAGAGU (DNA:RNA)
RNA: B1 RNA with U25C, G26A, U27A, C30G
DNA 1: CAATCTGAATTCCGGTCTCCC
DNA 2: TGGTGGCTACGACGGGATT
B12: GCUCCAG (DNA:RNA)
RNA: B3 RNA with A25G, U26C, G27U, U28C, U30A
DNA 1: CAATCTGAATTCCGGTCTCCC
DNA 2: TGGTGGCTACGACGGGATT
B13: AUAAUUG (DNA:RNA)
RNA: B3 RNA with G27A, U28A, C29U
DNA 1: CAATCTGAATTCCGGTCTCCC
DNA 2: TGGTGGCTACGACGGGATT
B14: UCACCCA (DNA:RNA)
RNA: B1 RNA with G26C, U27A, G28C, A29C, U31A
DNA 1: CAATCTGAATTCCGGTCTCCC
DNA 2: TGGTGGCTACGACGGGATT
B15: UAGCACG (DNA:RNA)
RNA: B1 RNA with G26A, U27G, G28C, U31G
DNA 1: CAATCTGAATTCCGGTCTCCC
DNA 2: TGGTGGCTACGACGGGATT
B16: AAUGUCU (DNA:RNA)
RNA: B1 RNA with U25A, G26A, A29U
DNA 1: CAATCTGAATTCCGGTCTCCC
DNA 2: TGGTGGCTACGACGGGATT
B17: GCUUCUA (DNA:RNA)
RNA: B3 RNA with A25G, U26C, G27U, G31A
DNA 1: CAATCTGAATTCCGGTCTCCC
DNA 2: TGGTGGCTACGACGGGATT
B18: AAAGUGA (DNA:RNA)
RNA: B3 RNA with U26A, G27A, U28G, C29U, U30G, G31A
DNA 1: CAATCTGAATTCCGGTCTCCC
DNA 2: TGGTGGCTACGACGGGATT
B19: UUACCUC (DNA:RNA)
RNA: B3 RNA with A25U, G27A, U28C, G31C
DNA 1: CAATCTGAATTCCGGTCTCCC
DNA 2: TGGTGGCTACGACGGGATT
B20: UACACAC (DNA:RNA)
RNA: B3 RNA with A25U, U26A, G27C, U28A, U30A, G31C
DNA 1: CAATCTGAATTCCGGTCTCCC
DNA 2: TGGTGGCTACGACGGGATT
B21: UUCUUAA (DNA:RNA)
RNA: B3 RNA with A25U, G27C, C29U, U30A, G31A
DNA 1: CAATCTGAATTCCGGTCTCCC
DNA 2: TGGTGGCTACGACGGGATT
B22: AAAGCGA (DNA:RNA)
RNA: B3 RNA with U26A, G27A, U28G, U30G, G31A
DNA 1: CAATCTGAATTCCGGTCTCCC
DNA 2: TGGTGGCTACGACGGGATT
B23: UACUGCA (DNA:RNA)
RNA: B1 RNA with G26A, U27C, G28U, A29G, U31A
DNA 1: CAATCTGAATTCCGGTCTCCC
DNA 2: TGGTGGCTACGACGGGATT
B24: AAAAGCG (DNA:RNA)
RNA: B3 RNA with U26A, G27A, U28A, C29G, U30C
DNA 1: CAATCTGAATTCCGGTCTCCC
DNA 2: TGGTGGCTACGACGGGATT
B25: UAAACGC (DNA:RNA)
RNA: B3 RNA with A25U, U26A, G27A, U28A, U30G, G31C
DNA 1: CAATCTGAATTCCGGTCTCCC
DNA 2: TGGTGGCTACGACGGGATT
B26: GGCUCAU (DNA:RNA)
RNA: B3 RNA with A25G, U26G, G27C, U30A, G31U
DNA 1: CAATCTGAATTCCGGTCTCCC
DNA 2: TGGTGGCTACGACGGGATT
B27: GCCUGGA (DNA:RNA)
RNA: B3 RNA with A25G, U26C, G27C, C29G, U30G, G31A
DNA 1: CAATCTGAATTCCGGTCTCCC
DNA 2: TGGTGGCTACGACGGGATT
B28: ACAACUC (DNA:RNA)
RNA: B3 RNA with U26C, G27A, U28A, G31C
DNA 1: CAATCTGAATTCCGGTCTCCC
DNA 2: TGGTGGCTACGACGGGATT
B29: UGUCCCA (DNA:RNA)
RNA: B1 RNA with G28C, A29C, U31A
DNA 1: CAATCTGAATTCCGGTCTCCC
DNA 2: TGGTGGCTACGACGGGATT
B30: GCUGGAC (DNA:RNA)
RNA: B1 RNA with U25G, G26C, A29G, C30A, U31C
DNA 1: CAATCTGAATTCCGGTCTCCC
DNA 2: TGGTGGCTACGACGGGATT
B31: CCAUGAU (DNA:RNA)
RNA: B3 RNA with A25C, U26C, G27A, C29G, U30A, G31U
DNA 1: CAATCTGAATTCCGGTCTCCC
DNA 2: TGGTGGCTACGACGGGATT

The target in the test is T1, RBFOX1 RRM RbFoxmut (Fox-RRM*). Briefly: EMSA; HiTS-Eq, 1 nM pool, 10 min; buffer printed only for the single-RNA assays: 10 mM Tris pH 7.5, 150 mM NaCl, 3.4 mM EDTA, 0.001% NP-40, 30 C. The settings on record: tags: His6 N-terminal (pET28a); label: 5' 32P. In short, it runs like this:
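Purified RbFox RRM (wild type or mutant) was equilibrated for 10 min in 50 µL with 1 nM of a 5′-radiolabelled pool of RNA with 7 randomized nucleotides, its flanks annealed to DNA oligonucleotides, across increasing protein concentrations. Free RNA was separated by 8% native PAGE, excised, reverse-transcribed, PCR-barcoded and sequenced on an Illumina HiSeq 2500. Relative association constants came from read-count changes of each variant against the control reaction, normalised to the cognate motif.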
With B1, the binding signal was 0.0758 KA relative to UGCAUGU.
Take B2: the binding signal is 0.113 KA relative to UGCAUGU.
Take B3: the binding signal is 0.175 KA relative to UGCAUGU.
Then B4, with 0.0964 KA relative to UGCAUGU.
Take B5: the binding signal is 0.0793 KA relative to UGCAUGU.
The same measure for B6: 0.1 KA relative to UGCAUGU; for B7: 0.0748 KA relative to UGCAUGU.
The same measure for B8: 0.0672 KA relative to UGCAUGU; for B9: 0.099 KA relative to UGCAUGU; for B10: 0.0531 KA relative to UGCAUGU.
Then B11, with 0.124 KA relative to UGCAUGU; and B12, with 0.113 KA relative to UGCAUGU; and B13, with 0.109 KA relative to UGCAUGU.
Consider B14, for which the binding signal was 0.0824 KA relative to UGCAUGU.
For B15, the binding signal was 0.24 KA relative to UGCAUGU.
On to B16, for which the binding signal was 0.0727 KA relative to UGCAUGU.
Then B17, with 0.134 KA relative to UGCAUGU; and B18, with 0.0773 KA relative to UGCAUGU.
With B19, the binding signal is 0.0646 KA relative to UGCAUGU.
In the case of B20, the binding signal was 0.0702 KA relative to UGCAUGU.
Then B21, with 0.101 KA relative to UGCAUGU; and B22, with 0.0522 KA relative to UGCAUGU.
Then B23, with 0.153 KA relative to UGCAUGU; and B24, with 0.0886 KA relative to UGCAUGU.
Then B25, with 0.0552 KA relative to UGCAUGU.
As to B26, the binding signal is 0.0932 KA relative to UGCAUGU.
Then B27, with 0.0891 KA relative to UGCAUGU; and B28, with 0.0564 KA relative to UGCAUGU; and B29, with 0.0792 KA relative to UGCAUGU.
For the molecule B30, the binding signal is 0.0737 KA relative to UGCAUGU.
Then B31, with 0.104 KA relative to UGCAUGU.
